Source: publication PMC10726135
Some of the results follow. At the low end of the ranking, values are background and their order means little. Measured with an extract: partners may take part in the binding.

Biological target: T1, HNF4alpha2 (COS-7 nuclear extract) (UniProt P41235)
T1 sequence: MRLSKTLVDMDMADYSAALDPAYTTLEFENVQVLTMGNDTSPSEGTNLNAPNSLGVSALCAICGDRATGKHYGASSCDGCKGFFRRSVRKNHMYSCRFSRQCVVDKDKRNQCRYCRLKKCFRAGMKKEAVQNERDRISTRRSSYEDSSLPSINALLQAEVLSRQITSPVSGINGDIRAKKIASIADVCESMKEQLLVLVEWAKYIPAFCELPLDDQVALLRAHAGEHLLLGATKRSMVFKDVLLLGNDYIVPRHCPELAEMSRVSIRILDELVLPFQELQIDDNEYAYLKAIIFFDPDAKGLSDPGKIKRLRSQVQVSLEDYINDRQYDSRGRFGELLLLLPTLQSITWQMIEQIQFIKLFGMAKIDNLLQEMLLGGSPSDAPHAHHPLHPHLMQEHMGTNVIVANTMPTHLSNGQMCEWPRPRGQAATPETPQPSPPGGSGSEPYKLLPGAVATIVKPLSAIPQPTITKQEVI
Assay: protein-binding microarray
Conditions: COS-7 nuclear extract on double-stranded Agilent 4x180k PBM; binding buffer, salt, pH and temperature not given; high values mean tight binding; double strand, one strand shown; sequences stand for … in …GCCTAGGGAGATTAGAGTATCGGTCGA

| Sequence | binding signal (log2 normalized intensity) |
| --- | --- |
| TAAGTACCCACTATAGATTGTGAGATAAGT | 0.14 |
| CCCCAAAAACTTGGACTCTATAGCCTATGC | 1.62 |
| AGGCCCATCTTCTTATCTGAGGTTTGACTT | 0.832 |
| AGGTCGCCGGGAAAACCCGGAGCGGAGCAT | -1.14 |
| CTGAAGACAGTCTCCAAGGTTATTATATTG | 1.46 |
| AACAGTCTGCACATTTATTGGACTAGGCAC | 1.23 |
| AGGAACTTACGAAGATAAATCAGAAGAAAA | -1.08 |
| CCATAAATACACAATCTGAAGTCCCCTGTG | 2.11 |
| ATATAAGCTATTACTTGATTTAATACGATA | 0.407 |
| TTTACGAAGTGTTTGTCAAGCTCAATGCAA | -0.424 |
| ATAACCACCATTAGACTCTGCCCTCCTTAA | 2.32 |
| CTGCTTGATAGCCATCTGGTGGACTTTGCT | 5.26 |
| TCCCTTCCCCCCTCCTCATTGAGAGTTTTA | 4.2 |
| CAGTGACAAATGTCAGACAAACAGACTTCA | -1.11 |
| GAACGAATACTCAAGGGGAAGAAATCTAAG | -1.2 |
| GGCCAGGATTAACCACAGAAATGCCGCTAA | -1.12 |
| TGAGTGACCTTTCACCCGCGCCCAGCGGTT | 3.91 |
| CCGGGAGCGCCGAGCACGTCGAGCAGGCCC | -1.07 |
| TGAATCAATAAGCCAGTGAACCTTTGTCCC | 4.79 |
| AGGAATGCTGAGGAGGGCCTGGGGGACAGC | -1.09 |
| TTCATCAGATTAGAAGGCAGAGAAAGATAG | -1.11 |
| CCTCCCCTCCCCCCAGTTCCCTGGGTCGCC | 4.3 |
| GTTAGCATAGCCTATCTGGTGCAGTCCAAG | -0.518 |
| TGAAACTCCACTACATTAGCAGCGCCACCA | -1.08 |

| Sequence | binding signal (log2 normalized intensity) |
| --- | --- |
| CTACATCAAGAGGATTACATAACCACCACT | -1.06 |
| ACTCTGAGGCTCCATCATGCCTGGCAGCCT | -1.09 |
| CTTGACCTTTGATCCAGGCTCAGTGGGCGT | 4.91 |
| CCTGATGACAACTGAATGTGACCTTTTGGA | 5.25 |
| TTCTTCTGGTTCTGCAAGGCAACTGACCTT | 3.64 |
| ATGTGACCTTTTGGACCACAGAGTGACCTG | 5.16 |
| CTGATAAATCCCGAGCCAGAGCCAAAGGGC | -1.06 |
| TCTGAGTAGGAAAGACTTGCTCATTGATGA | -0.647 |
| AGTTTGACTCCAAAGGGCTGGAGACTGAGT | -0.509 |
| ATAAAGGAAGCTGGGCACAAATTGGAGAGC | -1.19 |
| TGATCCAGGGCAAAGGTCATAATTTGATCC | 6.34 |
| GGAAATGCCTAGGATACCTAGTAGGCACAA | -1.24 |
| TTGACCTTTGGCCAAGGGCAGTGTTTGCCC | 5.35 |
| GATGCAGGTCGCCGGGAAAACCCGGAGCGG | -1.03 |
| TGACCCTATCCACATTCAGCCCACTTCCTA | 1.16 |
| GTTCCCTGGGTCGCCAAGCCGGAGGCTTTG | -0.863 |
| CTGACTGGCCTGGGAACCCCAAGTTATCTT | -1.13 |
| TCACCTGTAGGGATGTGGGACTTAATCCTT | 0.695 |
| CCAAATTCCTCCCACTCTGACATCCCCCTT | 4.52 |
| GGGAAACAGCGAGAGTCCTCTTGGTTTATG | 0.679 |
| ATGAATGTCACACACAGACTTGGGTTCAAA | 1.21 |
| AATTCTATGAGTAGGTACAAATTCCAAGGA | 1.93 |
| ATGCGATACTTGACCTGCAATGAAAGTCCA | 2.44 |
